# Test results: PubChem BioAssay (NCI)
#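 Assay format: 96-well plates, 48-hour exposure. The concentration for 50% growth inhibition is given as GI50. TGI denotes the concentration required for complete inhibition of growth.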
# Test system: NCI-H322M lung
# Experiment: NCI tumour cell line growth inhibition, 48 h
Structure (SMILES),TGI,GI50
CCOP(=O)(OCC)C1=C(c2ccccc2)OC(N)=C(C#N)C1c1ccc(Cl)cc1 (centres undefined),> 100 µM,
COc1cc(Oc2nc3c(N)cc(C(F)(F)F)cc3nc2-c2ccccc2)cc(OC)c1OC,> 100 µM,
CC1(C)OC(=O)C2(O1)C(=O)C1CCCCC12 (centres undefined),> 100 µM,
COC(=O)C1=C(OC(=O)c2ccc(Cl)cc2)C(C(=O)OC)[C@@]2(O)[C@@H](C(=O)OC)C(c3ccccc3Cl)C[C@@H]1[C@@H]2C(=O)OC (some centres undefined),26.1 µM,3.3 µM
CCCCOCCOC1=CC(=O)c2c(O)ccc(O)c2C1=O,3.04 µM,
CC(=O)NC1CC2Oc3ccc(C)cc3C(C)(O2)C1O (centres undefined),> 100 µM,
Cn1cnc(N2CCCC2)c(C#N)c1=O,> 100 µM,
Nc1n[nH]c2ccc([C@@H]3Nc4ccc5[nH]ncc5c4[C@H]4C5C=CC(C5)[C@@H]34)cc12 (some centres undefined),> 65.3 µM,0.783 µM
CCCOC(=O)CCn1c(SC)nc2[nH]cc(-c3ccccc3)c2c1=O,> 100 µM,54.9 µM
O=C1NC2C=CN(Cc3ccccc3)C=C2C(=O)N2CCCC12 (centres undefined),> 100 µM,
CC(C)(C)[Si](C)(C)OCCOCn1cc(F)c(=O)[nH]c1=O,> 100 µM,
CC(C)N1C(NNC(=O)c2cnccn2)=NS(=O)(=O)c2ccccc21,> 100 µM,> 100 µM
COC(C)(C)CCc1[nH]c2ccccc2c1CC(=O)NCCc1cncn1C,> 100 µM,
CCN(CC)CC(C(=O)Nc1c(C)cccc1C)/C(C)=N\NC(=O)c1ccncc1 (centres undefined),> 100 µM,
COc1cc(C2CC(c3ccc(N(C)C)cc3)=NN2C(C)=O)cc(OC)c1OC (centres undefined),> 82 µM,4.37 µM
Nc1cc(N)c2nc(-c3ccccc3)c(NCc3ccc(F)cc3)nc2c1,11.6 µM,3.46 µM
O=c1oc(-c2ccccc2)c(-c2ccccc2)n1-c1ccc(Br)cc1,> 100 µM,
COC(=O)C(F)C(Br)C(=O)OC (centres undefined),30.5 µM,
CCCCN(CCCC)c1ccc(C(=NC(C)CCCN(CC)CC)c2ccc(N(C)C)cc2)cc1 (centres undefined),2.67 µM,1.05 µM
CCOc1ncn(-c2ccc(NC(=S)NC34CC5CC(CC(C5)C3)C4)cc2)n1,> 100 µM,
C1CCOC2(CCC3(CC2)OCCCCO3)OC1,> 100 µM,
COc1cc(/C=C2\C(=O)N(Cc3ccccc3)C(c3ccccc3)S2(=O)=O)cc(OC)c1OC (centres undefined),> 100 µM,
C[C@@H](NC1CCC[C@H]1O)c1ccccc1 (some centres undefined),> 100 µM,
Cc1ccc(S(=O)(=O)NNC2(NS(=O)(=O)c3ccc(Cl)cc3)C(Cl)=C(Cl)C(=O)c3ccccc32)cc1 (centres undefined),30.4 µM,

Structure (SMILES),TGI,GI50
c1ccc2c(c1)nc1n2C2CCC(C2)N1 (centres undefined),> 10 µM,
CS/C(C)=N/OC(=O)NCCCCNc1ccc(N=[N+]=[N-])cc1,> 100 µM,
COc1cc([C@@H]2c3cc4c(cc3[C@@H](OC(=O)c3ccccc3)C3COC(=O)[C@@H]32)OCO4)cc(OC)c1O (some centres undefined),> 100 µM,
Nc1nc(N)c2[nH]cnc2n1 (tested in a mixture with another compound),> 100 µM,
COC(=O)C1CCC(=O)N1C(c1ccccc1)c1cc(OC)c(OC)c(OC)c1 (centres undefined),> 100 µM,
O=C1OCC/C1=C/c1ccc(N=Nc2c(O)ccc3ccccc23)cc1,69.1 µM,
C/C=C/[C@@H]1OC(=O)C2=C[C@@H](O)[C@@H](/C=C/C)O[C@H]21,31.9 µM,14.7 µM
CSc1ccccc1C#Cc1ccccc1C#CCCCCO,25.1 µM,12.2 µM
C=CC1C(OC2OC(CO)C(O)C(O)C2O)OC=C(C(=O)OC)C1CC=O (centres undefined),> 100 µM,
CC(C)/C(Cl)=N\OC(=O)Nc1ccc(F)cc1F,19.1 µM,
COC(=O)C1=C(CCCCO[Si](C)(C)C(C)(C)C)NC(=O)N2[C@@H](CCOCc3ccccc3)CC[C@H]12,> 100 µM,
O=C(COc1cccc(/C=C2\COc3ccc(Cl)cc3C2=O)c1)c1ccc(Cl)cc1,30.3 µM,14.7 µM
N.N.NCCCCCCN.O=C([O-])CC(=O)[O-].O=C([O-])CC(=O)[O-].[Pt+4].[Pt+4],> 100 µM,> 100 µM
O=c1[nH]c(-c2ccccc2)nc2c1sc1nc3ccccc3n12,> 100 µM,
COc1cc2c3c(n(C)c(=O)c2cc1OC)-c1cc2c(cc1/C3=C\C(N)CN)OCO2 (centres undefined),8.81 µM,1.5 µM
COc1cc(C2C3=C(COC3=O)Nc3cc4c(cc32)CCC4)cc2c1OCO2 (centres undefined),41 µM,3.37 µM
CC1(C)CC[C@]2(C(=O)N3CCOCC3)CC[C@]3(C)C(=CC[C@@H]4[C@@]5(C)C/C(=C/c6ccncc6)C(=O)C(C)(C)[C@@H]5CC[C@]43C)[C@@H]2C1,> 100 µM,4.32 µM
CC(C)(CO)NC(=O)Nc1c(C(F)(F)F)cc(-c2ccccc2)[nH]c1=O,> 100 µM,
N#Cc1[nH]c(=O)n(-c2cccc3ccccc23)c1N,> 10 µM,
COc1cc(C(=O)/C=C/c2cccnc2Nc2ccccc2)cc(OC)c1OC,3.39 µM,1.9 µM
CCCCNC(=O)NS(=O)(=O)c1ccc(N2N=C(c3cc(C)ccc3C)CC2c2cc(OC)c(OC)c(OC)c2)cc1 (centres undefined),13.9 µM,3.35 µM
CC(C)C[C@H](NC(=O)[C@@H](O)[C@H](N)Cc1ccc([N+](=O)[O-])cc1)C(=O)O,> 25 µM,> 25 µM
COc1cccc2nc3cc(C)c(C)cc3nc12,> 100 µM,
